{"source": "patent US10604555B2", "about": "“GIP derivatives and uses thereof” (priority 2018, dated 2020)", "format_in_all_cases": "physicochemical", "key": {"[1]": {"experiment": "Chemical stability: HMWP formation by SEC-MS", "conditions": "37° C., 4 weeks, 250 μM, pH 7.4", "method": "The aim of this study is to determine the chemical stability of GIP derivative compositions. As a measure of stability of the GIP derivative composition, the formation of high molecular weight peptide formation (% HMWP) as a function of time was analysed by size-exclusion chromatography (SEC-MS). Further, the purity loss of the GIP derivative compositions was measured by LCMS. Samples for chemical stability assays were freshly prepared before each assay. […] The pH of the sample was adjusted to the desired value using appropriate amounts of concentrated NaOH and HCl. […] Formation of covalent oligomers (HMWPs) was analysed and identified by a SEC-MS method. […] The LC system was coupled to both a TUV detector operated at 215 nm, 10 Hz and a high resolution QToF mass spectrometer from Waters (Synapt G2S) operated in positive ion mode and m/z range of 100 to 4000 with normal resolution setting. Lock mass correction against Leu-Enkephalin was done every 31 sec. Spectra were processed in MassLynx version 4.1 and MaxEnt deconvoluted."}, "[2]": {"experiment": "ThT fibrillation assay (physical stability)", "conditions": "250 μM, pH 7.4, 37° C., 45 hours of incubation", "method": "The Thioflavin T assay was performed as outlined in Schlein (2017), AAPS J, 19(2), 397-408.\nThis has traditionally been measured by visual inspection of the sample. However, that kind of measurement is very cumbersome and depending on the observer. Therefore, the application of a small molecule indicator probe is much more advantageous. Thioflavin T (ThT) is such a probe and has a distinct fluorescence signature when binding to fibrils [Naiki et al. (1989) Anal. Biochem. 177, 244-249; LeVine (1999) Methods. Enzymol. 309, 274-284].\nThe time course for fibril formation can be described by a sigmoidal curve with the following expression [Nielsen et al. (2001) Biochemistry 40, 6036-6046]:\nHere, F is the ThT fluorescence at the time t. The constant t0 is the time needed to reach 50% of maximum fluorescence. The two important parameters describing fibril formation are the lag-time calculated by t0−2τ and the apparent rate constant kapp 1/τ.\nFew of those intermediates nucleate to form a template onto which further intermediates may assembly and the fibrillation proceeds. The lag-time corresponds to the interval in which the critical mass of nucleus is built up and the apparent rate constant is the rate with which the fibril itself is formed.\nSamples are prepared freshly before each assay. The drug substance was solved with 250 μM of the GIP derivative in 8 mM phosphate, 14 mg/mL propylene glycol, 58 mM phenol, pH 7.4. The pH of the sample was adjusted to the desired value using appropriate amounts of concentrated NaOH and HCl. Thioflavin T was added to the samples from a stock solution in H2O to a final concentration of 1 μM.\nSample aliquots of 200 μl were placed in each well of a 96 well microtiter plate (Packard OptiPlate™-96, white polystyrene). Four replica of each sample (corresponding to one test condition) was placed in one column of wells. The plate was sealed with Scotch Pad (Qiagen).\nIncubation, shaking and measurement of the ThT fluorescence emission were done in a Fluoroskan Ascent FL fluorescence platereader (Thermo Labsystems). […] Fluorescence measurement was done using excitation through a 444 nm filter and measurement of emission through a 485 nm filter.\nEach run was initiated by incubating the plate at the assay temperature for 10 min. The plate was measured every 20 minutes for a desired period of time. Between each measurement, the plate was shaken and heated as described.\nAfter completion of the ThT assay the replica of each sample was pooled and centrifuged at 20000 rpm for 30 minutes at 18° C. The supernatant was filtered through a 0.22 μm filter and an aliquot was transferred to a HPLC vial. The concentration of the filtered sample relative to the initial sample (in percentage) was reported as the recovery.\nThe measurement points were saved in Microsoft Excel format for further processing and curve drawing and fitting was performed using GraphPad Prism. […] The data points were a mean of the four replica and shown with standard deviation error bars. Only data obtained in the same experiment (i.e. samples on the same plate) were presented in the same graph ensuring a relative measure of fibrillation between experiments.\nThe data set may be fitted to Eq. (1)."}, "[3]": {"experiment": "Chemical stability: purity loss by LCMS", "conditions": "37° C., 4 weeks, 250 μM, pH 7.4", "method": "The aim of this study is to determine the chemical stability of GIP derivative compositions. As a measure of stability of the GIP derivative composition, the formation of high molecular weight peptide formation (% HMWP) as a function of time was analysed by size-exclusion chromatography (SEC-MS). Further, the purity loss of the GIP derivative compositions was measured by LCMS. Samples for chemical stability assays were freshly prepared before each assay. […] The pH of the sample was adjusted to the desired value using appropriate amounts of concentrated NaOH and HCl. […] The column oven was kept at 55° C. […] The solvents were pumped from a binary solvent manager system and mixed on the high pressure side in a mixer with a volume of 50 μl. The gradient and flow can be seen in table 4: [table] A Flow-through-needle auto sampler at 8° C. was used to inject 1 μl of each sample. The effluent passed through a tunable UV detector (TUV) tuned to 215 nm. The outlet from the UV detector passed to the electrospray source of the mass spectrometer. The capillary was held at 3 kV and dry nitrogen gas was purged at a flow of 750 I/h and a temperature of 250° C. The source block was kept at 120° C. and the large bore cone was flushed with nitrogen at 50 I/h with standard electrode potentials on the rest of the instrument. The MS was operated in high resolution mode with a nominal resolution of 35000. The ToF analyser was operated in ADC mode with an m/z window from 100-2000."}}, "note": "Part of at least one peptide drawing is inferred or uncertain, most often the ends. At least one compound was matched to its structure with a doubt left. *1 amine or outer side, *2 acyl side, *3 side chain or, on linkers, in order; H or OH if unused. Where a SMILES comes first, the peptide text is derived from it. Side-chain parts run from the residue outwards. [ ]: non-standard residue; d: D form. The star is where a group is joined. X1 = O=C(O)CCCCCCCCCCCCCCCCCCC(=O)NCC1CCC(C(=O)*)CC1; γGlu = O=C(O)[C@H](CCC(=O)[*:2])N[*:1]; Nle = CCCC[C@H](N)C(=O)O; Aib = CC(C)(N)C(=O)O"}
{"smiles": "CCCC[C@H](NC(=O)[C@H](C)NC(=O)[C@@H](NC(=O)[C@H](CO)NC(=O)[C@H](Cc1ccc(O)cc1)NC(=O)[C@H](CC(=O)O)NC(=O)[C@H](CO)NC(=O)[C@@H](NC(=O)[C@H](Cc1ccccc1)NC(=O)[C@@H](NC(=O)CNC(=O)[C@H](CCC(=O)O)NC(=O)C(C)(C)NC(=O)[C@@H](Cc1ccc(O)cc1)NC(C)=O)[C@@H](C)O)[C@@H](C)CC)[C@@H](C)CC)C(=O)N[C@@H](CC(=O)O)C(=O)N[C@@H](CCCCN)C(=O)N[C@H](C(=O)N[C@@H](CCCNC(=N)N)C(=O)N[C@@H](CCC(N)=O)C(=O)N[C@@H](CCC(N)=O)C(=O)N[C@@H](CC(=O)O)C(=O)N[C@@H](Cc1ccccc1)C(=O)N[C@H](C(=O)N[C@@H](CCCCNC(=O)CC[C@H](NC(=O)CC[C@H](NC(=O)CC[C@H](NC(=O)C1CCC(CNC(=O)CCCCCCCCCCCCCCCCCCC(=O)O)CC1)C(=O)O)C(=O)O)C(=O)O)C(=O)N[C@@H](Cc1c[nH]c2ccccc12)C(=O)N[C@@H](CC(C)C)C(=O)N[C@@H](CC(C)C)C(=O)N[C@@H](C)C(=O)N[C@@H](CCC(N)=O)C(=O)N[C@@H](CCCCN)C(=O)NCC(=O)O)C(C)C)[C@@H](C)CC", "note": "(stereo partly drawn) [Compound 6, N{1}-acetyl,N{Epsilon-24}-[(4S)-4-carboxy-4-[[(4S)-4-carboxy-4-[[(4S)-4-carboxy-4-[[4-[(19-carboxynonadecanoylamino)methyl]cyclohexanecarbonyl]amino]butanoyl]amino]butanoyl]amino]butanoyl]-[D-Tyr1,Aib2, Nle14,Arg18, Lys24]-hGIP(1-31)]", "values": [{"measurement": "HMWP formation (%/month)", "setting": "[1]", "value": 0.50, "unit": "%/month"}, {"measurement": "ThT Assay Lag time", "setting": "[2]", "value": ">45", "unit": "h"}, {"measurement": "Purity loss (%/month)", "setting": "[3]", "value": 5.20, "unit": "%/month"}]}
{"smiles": "CCCC[C@H](NC(=O)[C@H](C)NC(=O)[C@@H](NC(=O)[C@H](CO)NC(=O)[C@H](Cc1ccc(O)cc1)NC(=O)[C@H](CC(=O)O)NC(=O)[C@H](CO)NC(=O)[C@@H](NC(=O)[C@H](Cc1ccccc1)NC(=O)[C@@H](NC(=O)CNC(=O)[C@H](CCC(=O)O)NC(=O)[C@H](C)NC(=O)[C@@H](Cc1ccc(O)cc1)NC(C)=O)[C@@H](C)O)[C@@H](C)CC)[C@@H](C)CC)C(=O)N[C@@H](CC(=O)O)C(=O)N[C@@H](CCCCN)C(=O)N[C@H](C(=O)N[C@@H](Cc1c[nH]cn1)C(=O)N[C@@H](CCC(N)=O)C(=O)NC(C)(C)C(=O)N[C@@H](CC(=O)O)C(=O)N[C@@H](Cc1ccccc1)C(=O)N[C@H](C(=O)N[C@@H](CCCCNC(=O)CC[C@H](NC(=O)CC[C@H](NC(=O)CC[C@H](NC(=O)C1CCC(CNC(=O)CCCCCCCCCCCCCCCCCCC(=O)O)CC1)C(=O)O)C(=O)O)C(=O)O)C(=O)N[C@@H](Cc1c[nH]c2ccccc12)C(=O)N[C@@H](CC(C)C)C(=O)N[C@@H](CC(C)C)C(=O)N[C@@H](C)C(=O)N[C@@H](CCC(N)=O)C(=O)N[C@@H](CCCCN)C(=O)NCC(=O)O)C(C)C)[C@@H](C)CC", "note": "(stereo partly drawn) [Compound 24, N{1}-acetyl,N{Epsilon-24}-[(4S)-4-carboxy-4-[[(4S)-4-carboxy-4-[[(4S)-4-carboxy-4-[[4-[(19-carboxynonadecanoylamino)methyl]cyclohexanecarbonyl]amino]butanoyl]-amino]butanoyl]amino]butanoyl]-[D-Tyr1,Nle14,Aib20,Lys24]-hGIP(1-31)] (Ac-[dY]AEGTFISDYSIA[Nle]DKIHQ[Aib]DFVK([γGlu-γGlu-γGlu-X1])WLLAQKG-OH; C-terminus assumed)", "values": [{"measurement": "HMWP formation (%/month)", "setting": "[1]", "value": 0.70, "unit": "%/month"}, {"measurement": "ThT Assay Lag time", "setting": "[2]", "value": ">45", "unit": "h"}, {"measurement": "Purity loss (%/month)", "setting": "[3]", "value": 3.60, "unit": "%/month"}]}
{"smiles": "CCCC[C@H](NC(=O)[C@H](C)NC(=O)[C@@H](NC(=O)[C@H](CO)NC(=O)[C@H](Cc1ccc(O)cc1)NC(=O)[C@H](CC(=O)O)NC(=O)[C@H](CO)NC(=O)[C@@H](NC(=O)[C@H](Cc1ccccc1)NC(=O)[C@@H](NC(=O)CNC(=O)[C@H](CCC(=O)O)NC(=O)C(C)(C)NC(=O)[C@@H](N)Cc1ccc(O)cc1)[C@@H](C)O)[C@@H](C)CC)[C@@H](C)CC)C(=O)N[C@@H](CC(=O)O)C(=O)N[C@@H](CCCCN)C(=O)N[C@H](C(=O)N[C@@H](CCCNC(=N)N)C(=O)N[C@@H](CCC(N)=O)C(=O)N[C@@H](CCC(N)=O)C(=O)N[C@@H](CC(=O)O)C(=O)N[C@@H](Cc1ccccc1)C(=O)N[C@H](C(=O)N[C@@H](CCCCNC(=O)CC[C@H](NC(=O)CC[C@H](NC(=O)CC[C@H](NC(=O)C1CCC(CNC(=O)CCCCCCCCCCCCCCCCCCC(=O)O)CC1)C(=O)O)C(=O)O)C(=O)O)C(=O)N[C@@H](Cc1c[nH]c2ccccc12)C(=O)N[C@@H](CC(C)C)C(=O)N[C@@H](CC(C)C)C(=O)N[C@@H](C)C(=O)N[C@@H](CCC(N)=O)C(=O)N[C@@H](CCCCN)C(=O)N1CCC[C@H]1C(N)=O)C(C)C)[C@@H](C)CC", "note": "(stereo partly drawn) [Compound 26, N{Epsilon-24}-[(4S)-4-carboxy-4-[[(4S)-4-carboxy-4-[[(4S)-4-carboxy-4-[[4-[(19-carboxynonadecanoylamino)methyl]cyclohexanecarbonyl]amino]butanoyl]amino]-butanoyl]amino]butanoyl]-[Aib2,Nle14,Arg18,Lys24,Pro31]-hGIP(1-31) amide]", "values": [{"measurement": "HMWP formation (%/month)", "setting": "[1]", "value": 1.30, "unit": "%/month"}, {"measurement": "ThT Assay Lag time", "setting": "[2]", "value": ">45", "unit": "h"}, {"measurement": "Purity loss (%/month)", "setting": "[3]", "value": 4.40, "unit": "%/month"}]}
